Assay in all cases: Primary Screen for Target Class Profiling of Small Molecule Inhibitors of Methyltransferases
Experiment [1] addresses Glycine N-methyltransferase (Homo sapiens) (UniProt Q14749). The note with it: purified enzyme, MTase-Glo SAH luminescence; measured here: GNMT inhibition; at 40 µM; stronger effect = lower value. In short, it runs like this:
(§1)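 Each enzyme was reacted with SAM and its substrate, with compounds tested once at 40 uM; SAH formed was read by MTase-Glo luminescence.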

For experiment [2], the target named is Guanidinoacetate N-methyltransferase (Homo sapiens) (UniProt Q14353). The note with it: purified enzyme, MTase-Glo SAH luminescence; measured here: GAMT inhibition; at 40 µM; stronger effect = lower value. In short, it runs like this: as §1
The target in experiment [3] is Histamine N-methyltransferase (Homo sapiens) (UniProt P50135). The note with it: purified enzyme, MTase-Glo SAH luminescence; measured here: HNMT inhibition; at 40 µM; stronger effect = lower value. In short, it runs like this: as §1
The target in experiment [4] is Nicotinamide N-methyltransferase (Homo sapiens) (UniProt P40261). The note with it: purified enzyme, MTase-Glo SAH luminescence; measured here: NNMT inhibition; at 40 µM; stronger effect = lower value. In short, it runs like this:
as §1

The target of experiment [5] is Phenylethanolamine N-methyltransferase (Homo sapiens) (UniProt P11086). The note with it: purified enzyme, MTase-Glo SAH luminescence; measured here: PNMT inhibition; at 40 µM; stronger effect = lower value. A digest of the protocol:
as §1

This is one part of the list. These are further read-outs of the screen, such as a control signal, another cell line or another target. No call is given for them.
% is scaled to controls: 0 for no effect and ±100 for the full control effect.

In the case of `Cn1c(Cn2cccn2)nnc1C1CC(NC(=O)c2sccc2N)C1` (configuration not stated), the activity change, negative = inhibition in experiment [1] is -2.3%; in experiment [2], -5.5%; in experiment [3] it was -0.385%; in experiment [4] it was -5.52%; in experiment [5], -2.38%.

For `Cc1ccc(C(=O)N2CC(CN3C(=O)c4c(c(C)nn4-c4ccccc4)C3C3CC3)C2)cc1` (configuration not stated), the activity change, negative = inhibition was -7.27% in experiment [1]; -10.3% in experiment [2]; -5.73% in experiment [3]; -19.8% in experiment [4]; -8.67% in experiment [5].

Take `NC(=O)[C@@H]1CN(Cc2ccccn2)C[C@H]1COc1ccccc1`: the activity change, negative = inhibition in experiment [1] is 1.18%; in experiment [2], 3.43%; in experiment [3], 0.608%; in experiment [4], -3.12%; in experiment [5], 13.9%.

`Cc1ccc(NC(=O)N2CC(n3cc(C(=O)NCc4ccncc4)nn3)C2)cc1C`: the activity change, negative = inhibition in experiment [1] was -4.16%; in experiment [2], -3.59%; in experiment [3], -1.61%; in experiment [4] it was -4.48%; in experiment [5], -2.17%.

As for `Cc1ccc(Cl)cc1NC(=O)N1CCn2cccc2C1Cc1ccccc1` (configuration not stated), the activity change, negative = inhibition was -9.97% in experiment [1]; 1.69% in experiment [2]; -12.3% in experiment [3]; -12.4% in experiment [4]; -9.84% in experiment [5].

Turning to `CC(=O)N1CCC(c2nnc3n2C(C(=O)Nc2ccc(C)cc2)CC3)CC1` (configuration not stated), the activity change, negative = inhibition is -7.49% in experiment [1]; -5.16% in experiment [2]; -6.07% in experiment [3]; -11.4% in experiment [4]; -9.2% in experiment [5].

In the case of `C=CCc1ccc(OC(C)Cc2ccc(OC)c(OC)c2)c(OC)c1` (configuration not stated), the activity change, negative = inhibition in experiment [1] is -8.03%; in experiment [2], 3.24%; in experiment [3] it was 8.04%; in experiment [4] it was -13.8%; in experiment [5], -10%.

Turning to `CCc1ccc(NC(=O)CN(C)S(=O)(=O)c2ccc3[nH]c4c(c3c2)CCCC4)cc1`, the activity change, negative = inhibition was -8.34% in experiment [1]; -3.18% in experiment [2]; -4.3% in experiment [3]; -10.5% in experiment [4]; -2.42% in experiment [5].

Take `CCOC(=O)c1cc2n(n1)CC(C)(C(=O)NC1CCCCCC1)N(c1ccc(CC)cc1)C2=O` (configuration not stated): the activity change, negative = inhibition in experiment [1] was 4.88%; in experiment [2] it was 0%; in experiment [3], -0.708%; in experiment [4] it was 2.68%; in experiment [5] it was 5.47%.

Turning to `Cc1cccc(Cn2nc3n(CC(C)C)c(=O)c4ccccc4n3c2=O)c1`, the activity change, negative = inhibition was 3.07% in experiment [1]; 0.878% in experiment [2]; 6.84% in experiment [3]; -2.17% in experiment [4]; 3.8% in experiment [5].

As for `Cc1cc(C)cc(NC(=O)Cn2c(=O)oc3cc(S(=O)(=O)NCc4ccccc4)ccc32)c1`, the activity change, negative = inhibition in experiment [1] is -5.06%; in experiment [2], 4.68%; in experiment [3] it was -3.9%; in experiment [4], 1.67%; in experiment [5], -4.79%.

For `CCCn1c(=O)c2ccc(C(=O)NC(C)CC)cc2n2c(=O)n(CC(=O)Nc3ccc(C)c(F)c3)nc12` (configuration not stated), the activity change, negative = inhibition in experiment [1] was 4.42%; in experiment [2], 2.26%; in experiment [3], 12.1%; in experiment [4], 0.919%; in experiment [5], 4.22%.

As for `O=C(NCCCCCNC(=O)c1cccnc1)c1cccnc1`, the activity change, negative = inhibition in experiment [1] was -6.36%; in experiment [2], -3.99%; in experiment [3], -4.11%; in experiment [4] it was -1.27%; in experiment [5], -6.72%.

Turning to `NCC(=O)N1CCCC2(Cc3ccccc3CN2S(=O)(=O)c2ccccc2)C1` (configuration not stated), the activity change, negative = inhibition was -3.55% in experiment [1]; 0.586% in experiment [2]; -3.27% in experiment [3]; -12.1% in experiment [4]; -0.726% in experiment [5].

On to `CC(C)N(Cc1nccn1C)C(=O)c1cc(Cn2cnc3ccccc32)[nH]n1`, for which the activity change, negative = inhibition is -2.96% in experiment [1]; -3.8% in experiment [2]; -2.29% in experiment [3]; -6.03% in experiment [4]; -2.21% in experiment [5].

Turning to `COc1ccc(/C=C/C(=O)O[C@@H]2[C@@H](OC(C)=O)[C@@H](OC(C)=O)[C@H](O[C@H]3[C@@H]4C=CO[C@@H](O[C@@H]5O[C@H](CO)[C@@H](O)[C@H](O)[C@H]5O)[C@@H]4[C@@]4(CO)O[C@@H]34)O[C@H]2C)cc1O`, the activity change, negative = inhibition in experiment [1] was -1.24%; in experiment [2], 5.36%; in experiment [3], 1.77%; in experiment [4], -6.37%; in experiment [5] it was 4.03%.

`CCCn1c(=O)c2ccccc2n2c(SCC(=O)Nc3ccc(C)c(C)c3)nnc12`: the activity change, negative = inhibition was 3.86% in experiment [1]; 4.16% in experiment [2]; 10.7% in experiment [3]; 5.07% in experiment [4]; 4.58% in experiment [5].

Take `CNC(=O)[C@@H]1CN(C(=O)c2ccc(OC)nc2OC)C[C@H]1c1n[nH]c(C)n1`: the activity change, negative = inhibition was -0.829% in experiment [1]; -0.164% in experiment [2]; -0.135% in experiment [3]; -5.84% in experiment [4]; 13.7% in experiment [5].

In the case of `O=C1NCCCCCN(C(=O)Cc2cccc(F)c2)[C@H]2CCC[C@@H]12`, the activity change, negative = inhibition in experiment [1] was -1.37%; in experiment [2] it was -0.447%; in experiment [3], 0.114%; in experiment [4], -5.08%; in experiment [5] it was -1.27%.

On to `CCNc1nc2c(s1)C(c1cccc(F)c1)CC(=O)N2` (configuration not stated), for which the activity change, negative = inhibition was -83.1% in experiment [1]; -71.4% in experiment [2]; -21.4% in experiment [3]; -47.8% in experiment [4]; -41.9% in experiment [5].

For the molecule `COc1ccccc1N1CCN(CC[C@@](C)(C(=O)C2CCCCC2)c2ccccc2)CC1`, the activity change, negative = inhibition in experiment [1] is -3.29%; in experiment [2], -9.64%; in experiment [3], 0.459%; in experiment [4], -28.5%; in experiment [5] it was -9.43%.

For `CCCCNC(=O)c1nnn2cc(-c3ccc(Cl)cc3)[nH]c(=O)c12`, the activity change, negative = inhibition was -13.8% in experiment [1]; 0.817% in experiment [2]; -2.77% in experiment [3]; -4.16% in experiment [4]; 12.2% in experiment [5].

As for `CC(C)CC(=O)Nc1ccnn1C1CCN(C(=O)c2scc3c2CCCC3)CC1`, the activity change, negative = inhibition in experiment [1] was 0.286%; in experiment [2] it was 3.18%; in experiment [3], 1.67%; in experiment [4], -3.64%; in experiment [5], 14.7%.

For the molecule `CCCCNC(=O)c1cc2n(n1)CC(C)(C(=O)NC1CCCC1)N(CCC)C2=O` (configuration not stated), the activity change, negative = inhibition in experiment [1] is -2.86%; in experiment [2], 2.27%; in experiment [3] it was -4.25%; in experiment [4], -4.66%; in experiment [5] it was -3.08%.

`CCCn1c(=O)c2cc(Cl)ccc2n2c(SCC(=O)Nc3cccc(F)c3)nnc12`: the activity change, negative = inhibition in experiment [1] was 3.37%; in experiment [2], 0.352%; in experiment [3] it was 11.9%; in experiment [4], 6.63%; in experiment [5] it was 9.06%.

With `CC(C)(C)CCN1C[C@@H]2C(CNC(=O)c3cc(Cl)cc(Cl)c3)[C@@H]2C1` (some centres not stated), the activity change, negative = inhibition in experiment [1] was 6.24%; in experiment [2], 14%; in experiment [3] it was -7.27%; in experiment [4] it was -22.6%; in experiment [5] it was 0.869%.

With `O=[N+]([O-])c1cn2c(n1)OCC(OCc1ccc(OC(F)(F)F)cc1)C2` (configuration not stated), the values for the activity change, negative = inhibition in experiment [1] and in experiment [3] were 0.001% and -1.01%, respectively.

As for `O=C(c1ccc2cc[nH]c2c1)N1CCCC(Cc2noc(-c3ccccn3)n2)C1` (configuration not stated), the activity change, negative = inhibition in experiment [1] is -8.06%; in experiment [2] it was -12.3%; in experiment [3], -6.09%; in experiment [4], -14.9%; in experiment [5], -10.9%.

As for `CC1CCCCC1NC(=O)C1c2cccn2CC(=O)N1CCc1ccc(Cl)cc1` (configuration not stated), the activity change, negative = inhibition worked out at 0.355% in experiment [1]; 1.05% in experiment [2]; 4.88% in experiment [3]; 2.54% in experiment [4]; 1.78% in experiment [5].

As to `COC(=O)c1cc(CN2CCN(C(=N)N)CC2)cc(C(=O)N2CCN(C(=O)c3ccc(C(=N)N)cc3)CC2)c1`, the activity change, negative = inhibition in experiment [1] was 5.64%; in experiment [2], 5.56%; in experiment [3] it was -44.5%; in experiment [4] it was -3.78%; in experiment [5], 6.51%.
